# Measurements reported in the supplement of paper PMC3334620.
# Over roughly 33,000 sequences, “E-score (-0.5 to 0.5)” has its median near -0.017; the highest 2% begin near 0.3. This is one part of the list.
# Target: T1, Sut1 (UniProt P53032)
# T1 sequence: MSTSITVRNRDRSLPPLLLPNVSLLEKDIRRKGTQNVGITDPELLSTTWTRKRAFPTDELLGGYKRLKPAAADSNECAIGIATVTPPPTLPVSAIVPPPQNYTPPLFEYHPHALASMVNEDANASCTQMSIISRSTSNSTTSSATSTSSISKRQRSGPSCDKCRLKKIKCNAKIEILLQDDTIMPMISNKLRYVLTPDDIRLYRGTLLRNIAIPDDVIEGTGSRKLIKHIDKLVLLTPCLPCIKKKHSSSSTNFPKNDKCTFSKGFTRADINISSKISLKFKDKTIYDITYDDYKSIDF
# Assay: PBM E-score (8-mer binding enrichment) (E-score (-0.5 to 0.5)); higher = stronger / more preferred TF binding; most listed sequences are background and not binding sites
# Conditions: protein concentration: 200 nM; construct: GST-full length
# Summary of the method: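 Bound GST-tagged yeast transcription factors, applied at about 100-200 nM to double-stranded universal all-10-mer Agilent arrays, were detected with fluorescent anti-GST. Scans were normalised with masliner. A modified Wilcoxon-Mann-Whitney statistic, the E-score, was assigned to each ungapped eight-base word pooled with its reverse complement by the Universal PBM Analysis Suite.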
row,Sequence,PBM E-score
1,ATCGGATA,0.288
2,CTGCCTTA,-0.168
3,ATATCTGG,-0.0354
4,ACTACGAC,0.0112
5,CTTCATTC,-0.139
6,CTCCGCAG,0.364
7,CGTAGAAG,0.143
8,GGTTTGAC,-0.0647
9,ATACGTGG,0.0687
10,TAAATCCA,0.123
11,CATACGAA,0.0829
12,CTTCCCGC,-0.171
13,GTCCCCTA,-0.107
14,AGTGAACT,-0.0232
15,GATAAGGC,-0.00083
16,AAAAGGCG,-0.0353
17,CCTAATCC,-0.122
18,AATAAATC,0.157
19,GAGTTGAA,0.18
20,AGAGCGGG,-0.0998
21,CGAAGGCC,-0.0887
22,ACCCATCA,-0.0944
23,AGGGCCCA,-0.111
24,AACTGGCT,-0.151
25,ATCGGTGG,0.00941

row,Sequence,PBM E-score
1,ATCCGATG,0.146
2,CAGAGCAC,-0.147
3,GATCTGGC,-0.0935
4,GGGGGCAC,-0.356
5,GAATGGGC,-0.0942
6,CGCACGCG,-0.172
7,CCCCTTCC,-0.238
8,ATTCACAA,0.259
9,ACTAAAGG,0.0043
10,AATGTATC,0.167
11,AGAAGAAC,0.0233
12,CGCATGAA,-0.154
13,AGGCACAT,-0.101
14,CACACACA,-0.0394
15,AACATGAG,-0.125
16,ATGGCAAA,0.039
17,AAACATCC,-0.0177
18,CTACACGA,0.0194
19,CTAACTAG,0.302
20,CAGCAGAA,-0.176
21,CCTGCGAA,-0.033
22,GCGTCGAA,-0.0605
23,CCCATCCC,-0.319
24,TCCCGTCA,-0.0175
25,CGCGATGA,-0.0517

row,Sequence,PBM E-score
1,AATCGAGG,-0.0701
2,AATGTCTG,-0.0542
3,CTCCACAG,-0.327
4,AGCAGGGA,-0.0562
5,AAAACCGA,0.173
6,CCTGAAGA,0.0536
7,GAACGACC,-0.258
8,TCATGACA,0.124
9,ATTAATCA,0.235
10,ATGTACCC,-0.0323
11,ACAACCAG,0.0393
12,CAATGTAA,0.0482
13,CAAGTGAG,-0.146
14,AATAGAGT,-0.0302
15,TAAAACGA,-0.0128
16,ACATTCCA,0.177
17,TGCTTCAA,0.0485
18,GGCTGCAA,-0.0943
19,ACCTGCCA,-0.272
20,ATCCCAGA,-0.198
21,TCTATGAA,0.102
22,CCAAAACA,-0.0644
23,CCACAGAG,-0.208
24,AACCGGAC,0.345
25,ACGGAAAA,0.243

row,Sequence,PBM E-score
1,CGCGAGAG,-0.0211
2,ATGGTCAC,-0.0331
3,AGTCACAT,0.0198
4,TGTGGTAA,0.0309
5,CGTTAAGA,-0.00015
6,TAATCGGA,0.308
7,ATCCTCGA,-0.12
8,CTCACAAC,0.0656
9,GAGATCCC,0.118
10,ACCGGCCA,-0.164
11,AGGCCGCC,-0.331
12,ACCTCAGA,-0.224
13,GAGATAAA,0.196
14,AATGGATC,0.0349
15,ATGTAGCG,-0.181
16,ACCTCTCG,-0.047
17,AGGCAGTG,-0.0722
18,ATAGAGGA,-0.169
19,ATAGGGTG,-0.0316
20,GTTGGATA,0.0887
21,TCATATCA,0.0743
22,CCATCCAC,-0.15
23,CCGCAACG,0.132
24,ATTATCAA,0.216
25,AACTGATC,-0.125

row,Sequence,PBM E-score
1,AGGCTCTA,-0.156
2,CCCATCGG,0.0634
3,ACTCTTGG,-0.0854
4,CTCCGACA,0.375
5,ATCGCTCC,-0.0547
6,TCAAGAGA,0.0718
7,CATAAGGA,-0.134
8,AGTCATCC,-0.01
9,GCGCGTAC,0.0594
10,CAGCCCGG,-0.0483
11,CAGGATCG,-0.177
12,ACTAGCGC,-0.066
13,CCCGGAAA,0.234
14,AAAGAGAG,0.00234
15,AATGGAAG,-0.0298
16,CTGCCGAA,0.095
17,CACTACCC,-0.269
18,ACGACATC,-0.166
19,ACTGGCGA,-0.352
20,CCTGGAAG,-0.246
21,ACACCGAG,0.186
22,CAATTTCG,0.0158
23,ACTAATCA,0.139
24,TACGGGAA,-0.264
25,AGGAGTTA,0.164

row,Sequence,PBM E-score
1,CGGGAGAA,-0.00885
2,ACCACCCG,-0.316
3,AACGTATG,-0.0742
4,CAAGAGGG,-0.225
5,ATGGATGA,-0.0218
6,CCTCATGA,-0.0557
7,TCACATCA,-0.011
8,AGGGCTAT,-0.211
9,ACCTAGTC,-0.0573
10,ATCCGTTG,0.121
11,TACACGAA,0.239
12,GACCACCC,-0.232
13,ACCTTGAA,0.0129
14,CCGGAGCC,0.396
15,ATACGATA,0.209
16,GCCTGGCC,-0.145
17,CCTATCCA,-0.0287
18,GACTATGC,0.0066
19,ACGTAAGT,-0.0302
20,AAGCCTTG,-0.109
21,ACGAACTG,-0.123
22,AAATTACG,0.17
23,AGGGATGC,-0.255
24,ACTATGAC,-0.0263
25,ATTTGTCG,0.153

row,Sequence,PBM E-score
1,GCTCAGCC,-0.158
2,GGGACCAA,-0.115
3,AAGGATTC,-0.201
4,CAAACTAA,0.276
5,AATATACT,0.277
6,AGTAGTAG,-0.00718
7,CCTTACAA,-0.0231
8,ACTTGCCC,-0.116
9,CTCCGCCA,0.171
10,GAGGGGCC,-0.25
11,TATGGTGA,0.031
12,CGATCCCG,-0.145
13,CTGTCGGC,0.00912
14,AGCGTGGC,-0.0467
15,AATCTATG,0.111
16,GATTTGAC,-0.0268
17,CCAGCTGC,-0.124
18,CGAAACCC,0.0597
19,ACACGCTG,-0.187
20,ATAAGCTC,0.149
21,ACTTCGCT,0.00937
22,CATAGTTA,0.133
